Screen size: about 310,000 compounds; about 2,200 (0.71%) showed an effect of 50% or more. Effects have a minus sign here. Some of the results follow.
What follows are compounds tested against human ether-à-go-go-related gene (hERG) potassium channel (human, UniProt Q12809) (assay: primary screen, population patch clamp on CHO cells stably expressing hERG).
Chain of human ether-à-go-go-related gene (hERG) potassium channel (Q12809 whole entry, looked up): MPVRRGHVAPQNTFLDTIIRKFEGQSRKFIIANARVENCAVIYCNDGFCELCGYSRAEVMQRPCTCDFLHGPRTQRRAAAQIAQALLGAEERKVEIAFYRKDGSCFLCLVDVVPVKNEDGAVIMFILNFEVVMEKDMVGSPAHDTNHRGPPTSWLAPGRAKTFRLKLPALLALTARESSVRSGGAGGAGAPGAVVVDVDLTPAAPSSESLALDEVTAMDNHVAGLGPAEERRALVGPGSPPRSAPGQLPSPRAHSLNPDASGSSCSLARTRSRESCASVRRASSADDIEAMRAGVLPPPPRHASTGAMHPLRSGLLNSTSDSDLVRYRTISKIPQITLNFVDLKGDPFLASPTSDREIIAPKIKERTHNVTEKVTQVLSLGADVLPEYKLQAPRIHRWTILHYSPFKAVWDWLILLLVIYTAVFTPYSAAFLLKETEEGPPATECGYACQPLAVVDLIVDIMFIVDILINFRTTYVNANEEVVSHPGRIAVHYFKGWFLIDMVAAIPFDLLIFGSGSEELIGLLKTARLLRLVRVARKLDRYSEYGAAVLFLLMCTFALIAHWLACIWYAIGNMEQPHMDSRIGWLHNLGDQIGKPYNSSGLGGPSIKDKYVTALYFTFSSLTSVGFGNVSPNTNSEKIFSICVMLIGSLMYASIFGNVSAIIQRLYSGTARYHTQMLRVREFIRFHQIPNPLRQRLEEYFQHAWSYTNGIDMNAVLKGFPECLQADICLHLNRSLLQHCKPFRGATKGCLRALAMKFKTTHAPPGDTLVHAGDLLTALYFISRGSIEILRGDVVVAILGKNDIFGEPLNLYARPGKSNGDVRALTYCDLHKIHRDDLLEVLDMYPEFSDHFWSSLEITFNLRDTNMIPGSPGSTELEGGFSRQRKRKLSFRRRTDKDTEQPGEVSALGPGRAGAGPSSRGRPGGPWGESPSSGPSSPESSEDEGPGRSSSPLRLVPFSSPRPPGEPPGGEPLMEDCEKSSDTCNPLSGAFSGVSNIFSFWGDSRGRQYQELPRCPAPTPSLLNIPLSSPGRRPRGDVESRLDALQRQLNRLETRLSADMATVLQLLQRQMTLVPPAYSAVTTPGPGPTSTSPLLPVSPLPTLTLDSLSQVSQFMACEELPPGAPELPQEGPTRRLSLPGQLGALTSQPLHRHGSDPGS

Compound	hERG current change (%, negative = inhibition) at 1uM [%]
CCOC(=O)N1CCN(C(=O)c2ccc3c(=O)n(CCC4=CCCCC4)c(=S)[nH]c3c2)CC1	14.1
COc1ccccc1OCC(=O)Nc1ccc(Cl)cc1	9.34
C=CCn1c(C)cc(C(=O)COC(=O)/C=C/c2ccc(OC)cc2)c1C	11.1
CCc1cc[n+](CC(=O)Nc2ccc(Cl)cc2Cl)cc1.[Cl-]	8.96
Cc1c(OCc2ccccc2)c(=O)ccn1Cc1ccccc1	-3.2
CN(CC(=O)Nc1ccc(F)cc1[N+](=O)[O-])Cc1ccccc1	8.08
CN(CC(=O)Nc1cccc(F)c1)C(=O)/C=C/c1ccc2ccccc2n1	10.3
CCCNS(=O)(=O)c1ccc(OCC(=O)NCC2CCCO2)cc1 (stereo not shown)	20.1
CN1CCC(=O)N([C@H](CO)c2ccccc2)CC1	3.71
N#Cc1c(N2CCN(C(=O)c3ccccc3)CC2)nc(-c2ccccc2)c2c1CCCC2	-12.2
C/C(Cl)=C/Cc1c(C)[nH]c2ccc(C)cc2c1=O	2.92
CCOC(=O)C1CCN(CCC(=O)Nc2ccccc2)CC1	-0.3
O=S1(=O)N(CCN2CC=C(c3c[nH]c4cc(F)ccc34)CC2)c2cccc3c2N1CCC3	3.08
O=C(CN(CC1CCCO1)C(=O)CCC(=O)Nc1ccccn1)NCC1CCCO1 (stereo not shown)	9.8
Cc1sc2ncnc(NCc3cccs3)c2c1C	2.15
COc1ccc(/C(O)=C/C(=O)C(=O)NNC(=O)c2ccccc2)cc1	16.6
Cc1ccc(-c2cc(C(=O)n3cnc4ccccc43)c3ccccc3n2)cc1C	4.97
CCCOc1ccc(NC(=O)CC2C(=O)N(CC)C(=S)N2Cc2cccs2)cc1 (stereo not shown)	9.87
COc1ccc(NC(=O)COc2coc(CN3CCc4ccccc43)cc2=O)cc1	3.78
COc1ccc(C2(c3ccc(OC)cc3)NC(=O)N(CC(=O)N(C)C3CCC(C)CC3)C2=O)cc1 (stereo not shown)	-5.84

Compound	hERG current change (%, negative = inhibition) at 1uM [%]
CC1(C)CC(=O)C=C(Nc2ccc(Cl)cc2)C1	9.64
COc1cc(CC(=O)Nc2sc3c(c2C(N)=O)CCCC3)cc(OC)c1OC	12.7
O=C(COC(=O)c1ccc(Br)o1)NCc1ccco1	-3.21
COc1ccc(CCN2CC(C(=O)N3CCCCCC3)CCC2=O)cc1 (stereo not shown)	14.9
COc1ccc(-c2oc3ccc(-c4cc(OC)c(OC)c(OC)c4)cc3c2C(=O)c2ccc(OC)nc2)cc1	9.84
COc1ccccc1CN(C)C(=O)CNC(=O)c1cccc(Cl)c1	8.62
COc1ccccc1NC(=O)c1cc(Br)ccc1Cl	6.71
Cc1cc(NC(=O)Nc2ccccc2Cl)no1	14.7
O=C(NN1C(=O)C2C3c4ccccc4C(c4ccccc43)C2C1=O)c1ccccc1 (stereo not shown)	14.3
CCCn1c(SCC(=O)Nc2cccc(C(=O)OCC)c2)nnc1-c1ccoc1C	5.88
COc1cc(C(C#N)N2CCC(c3ccccc3)=N2)ccc1O (stereo not shown)	5.94
C/C(=N\NC(=O)c1ccc(Cl)c(Cl)c1)c1ccc(Br)s1	-0.684
CCOc1ccc2nc(N(CCN(CC)CC)C(=O)/C=C/c3cccs3)sc2c1.Cl	9.57
Nc1nnnn1/N=C/c1ccc(F)cc1	18.5
O=C(c1ccc2c3c(cccc13)CC2)C1CCCN(Cc2cccnc2)C1 (stereo not shown)	-14.4
c1csc(-c2cc(N3CCCCC3)c3ccccc3n2)c1	8.47
Nn1c(SCC(=O)Nc2ccccc2)nnc1C1CCCCC1	4.81
COc1cc(/C=N/NC(=O)c2nonc2C)ccc1O	18.1
C/C=C/C=N/Nc1nc(C)cc(=O)[nH]1	11.6
O=C(CN1C(=O)/C(=C/c2ccc(Cl)cc2)SC1=S)NC1C=CS(=O)(=O)C1 (stereo not shown)	17.6

Compound	hERG current change (%, negative = inhibition) at 1uM [%]
O=S(=O)(Cc1ccccc1)c1ccccc1-c1nnc(-c2ccccc2)o1	14.9
COc1ccc(C(=O)NCC(=O)Nc2ccc(F)cc2)cc1OC	4.45
COc1cccc(-c2cccc(NC(=O)C3CCN(Cc4ccc(CO)o4)CC3)c2)c1	-10.4
CCCCNC(=O)C1CCN(S(=O)(=O)c2ccc3c(c2)CC(C)N3C(=O)C2CC2)CC1 (stereo not shown)	6.25
O=C(NNC(=O)c1ccccc1-n1cccc1)c1ccc(Cl)cc1Cl	2.6
N#CCSc1nc(Nc2ccc3c(c2)OCO3)c2ccccc2n1	1.36
COc1ccc(-c2nc(CC(=O)O)cs2)cc1OC	19.5
CC(Oc1ccccc1)C(=O)NC1=NCCS1 (stereo not shown)	8.09
c1ccc(-c2csc(Nc3nc(N4CCOCC4)nc(N4CCOCC4)n3)n2)cc1	8.82
CC1=CC2=NC(=O)/C(=C\c3cccn3CCOc3ccccc3C)C(=N)N2O1	1.22
COc1ccc(C(=O)COC(=O)CNC(=O)c2cccc(OC(F)F)c2)cc1	-7.51
CC(C)NCC(O)COc1ccc(CCOCC2CC2)cc1.Cl (stereo not shown)	2.51
CCn1c(C)nnc1SCC(=O)Nc1ccccc1Cl	6.94
CC(=O)Nc1cccc(C(=O)Nc2ccccc2C(=O)O)c1	12.2
Cc1ccc(C)c(NC(=S)NNC(=O)c2ccco2)c1	11.9
COc1ccc(OC)c(/C=N\NC(=O)c2c(C)nc3cc(C)ccn23)c1	-3.48
Nn1c(Cc2ccccc2)n[nH]c1=S	13
O=C1CSC(=Nc2ccccc2Cl)N1	3.64

From publication PMC4336329 (PLoS ONE, 2015)
